Results: PubChem BioAssay AID1508624 (National Center for Advancing Translational Sciences (NCATS), 2021)
Screen size: about 48,000 compounds; about 120 (0.25%) were called active. Not shown: some 4% with an inconclusive outcome. Calls follow the shape of the dose curve; as a rule, active = well fitted activation curve with a large enough effect; inconclusive = small, poorly fitted or top-dose-only effect, or another doubt; inactive = no such curve, though single readings can be large or run the other way. The list shows a part of the results.

Assay: Primary qHTS for Identification of Small Molecule Activators of Huntingtin-Antisense Promoter Activity; also: nearly all actives have a fitted effect of over 55% in size
Details: HEK293 HTT-AS promoter firefly luciferase reporter (activity 0% = vehicle and -100% = no light), 24 h; series mostly up to 57.5 µM; activity change, positive = activation: at the top concentration
In short: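 HEK293 luciferase promoter-reporter cells (2,500/well) plated 24 h, then compounds added at up to 57.5 uM final for 24 h at 37 °C. Firefly luminescence by Dual-Glo, normalized to vehicle (0%) and zero RLU (-100%).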
Potency is read from the fitted curve at half-maximal effect.

Row | Structure (SMILES) | activity change, positive = activation | Potency
1 | Nc1ccc(C(=O)Nc2cccc(-c3nc(N4CCOCC4)c4oc5ncccc5c4n3)c2)cn1 | inactive: -28.1% | 
2 | CCOC(=O)c1ccc(NC(=O)Nc2cccc(OCc3cc(=O)n4ccc(C)cc4n3)c2)cc1 | inactive: 14.6% | 
3 | COc1ccc(NC(=O)CCc2nc3cccnc3n2Cc2cccs2)c(OC)c1 | inactive: -17.4% | 
4 | CCC(=O)N[C@H]1CC[C@H](C(=O)N(C)c2ccc(-c3nc4ccccc4o3)cc2)C1 | inactive: -13% | 
5 | CCCCOc1ccc(NC(=O)CSc2ccc(C(=O)O)cn2)cc1 | inactive: 27.7% | 
6 | Cc1cc(N2CCN(c3ccccc3F)CC2)n2cnnc2n1 | inactive: -35.3% | 
7 | O=C(NCc1ccc(F)cc1)c1ccc2c(c1)N(Cc1ccc(F)cc1Cl)C(=O)CS2 | inactive: -12.9% | 
8 | CCCSc1ncc(Cl)c(C(=O)Nc2ccc(OC)cc2OC)n1 | inactive: -11.4% | 
9 | O=C(NCCn1cc(SCc2ccc(C(F)(F)F)cc2)c2ccccc21)c1ccccc1F | inactive: -41.9% | 
10 | COc1cccc(CNC(=O)CCn2ccc3cc(S(=O)(=O)N4CCCC4)ccc32)c1 | inactive: -2.46% | 
11 | Cc1ccc(CN2C(=O)SC(Nc3ccccc3)C2=O)cc1 (stereo not drawn) | inactive: -13.4% | 
12 | O=C(C1CCN(S(=O)(=O)c2cccc3nonc23)CC1)N1CCN(c2ccc(F)cc2)CC1 | inactive: -30.3% | 
13 | CCOc1ccc(CNC(=O)CCS(=O)(=O)c2cc3c4c(c2)CCN4C(=O)CC3)cc1 | inactive: -11.8% | 
14 | CCOC(=O)c1c(C)oc2ncnc(Nc3ccc(CC)cc3)c12 | inactive: 3.94% | 
15 | CC1CCN(C(=O)CN2CCSc3ccc(S(=O)(=O)N(C)C)cc32)CC1 | inactive: -21.2% | 
16 | CN(C)CCCN1c2ccccc2Sc2ccc(Cl)cc21 | inactive: -34.9% | 
17 | Cc1cc(C)cc(OC(=O)c2cc(-c3ccc4c(c3)OCCO4)on2)c1 | inactive: 6.55% | 
18 | COc1ccc(/C=C/c2nc(-c3ccccc3O)n(-c3ccccc3)n2)cc1OC | inactive: -19.5% | 
19 | CCC(=O)N1CCc2cc(S(=O)(=O)NCCC(=O)NC(C)c3ccccc3)ccc21 (stereo not drawn) | inactive: 10.7% | 
20 | CC(=O)c1ccc(NC(=O)C(Cc2ccccc2)NS(=O)(=O)c2ccc3c(c2)CCC(=O)N3)cc1 (stereo not drawn) | inactive: -7.25% | 
21 | CCOC(=O)Cc1c(C)nc2c(-c3ccc(OC)c(OC)c3)c(C)nn2c1C | inactive: -19.4% | 
22 | CCOC(=O)CC(NC(=O)c1cc2cc(OC)ccc2oc1=O)c1ccc(OC)cc1 (stereo not drawn) | inactive: -3.18% | 
23 | Cc1cccc(C(=O)Nc2nnc(S(=O)(=O)N3CCC(C)CC3)s2)c1 | inactive: -11.9% | 
24 | O=C(CCC(=O)N1CC2CCCN2c2ccccc21)NCc1ccccc1F (stereo not drawn) | inactive: -3.47% | 

Row | Structure (SMILES) | activity change, positive = activation | Potency
25 | Cc1cccc(OCC(=O)OCc2cc(=O)n3nc(C4CC4)sc3n2)c1 | inactive: 8.41% | 
26 | O=C(NCc1ccccc1)c1cccc(Nc2nc3ccccc3n3nnnc23)c1 | inactive: -3.48% | 
27 | COc1ccc(CNC(=O)Cn2ccc3cc(S(=O)(=O)N4CCCCCC4)ccc32)cc1OC | inactive: -26.4% | 
28 | COc1ccc2oc(=O)cc(CN3CCN(C(=O)c4ccccc4F)CC3)c2c1 | inactive: -17.1% | 
29 | CCn1c(CN2CCC(C)CC2)nc2cc(NC(=O)c3ccccc3[N+](=O)[O-])ccc21 | inactive: -14.8% | 
30 | Cc1ccc(C)c(Cn2c(=O)c3c(nc4n3CCN4c3ccc(F)cc3)n(C)c2=O)c1 | inactive: -14.6% | 
31 | CCOC(=O)c1c(C)[nH]c(CCC(=O)NCCCN2CCN(c3cccc(Cl)c3)CC2)c1C | inactive: -35.6% | 
32 | CCOc1ccc(-n2c(Cc3ccccc3)nnc2SCc2nc(-c3ccccc3C)no2)cc1 | inactive: -41.7% | 
33 | CC(=O)NCCNC(=O)CCCc1nnc2n(CCC(C)C)c(=O)c3sccc3n12 | inactive: -4.22% | 
34 | CCS(=O)(=O)N1CCc2cc(C(=O)N3CCN(c4cccc(C(F)(F)F)c4)CC3)ccc21 | inactive: -28.7% | 
35 | Cc1ccc(NC(=O)C(=O)NCC(c2cccnc2)N2CCOCC2)cc1C (stereo not drawn) | inactive: -15.6% | 
36 | CCc1ccc(OC(=O)CSc2nnc(-c3ccc4c(c3)OCO4)o2)cc1 | inactive: -25.9% | 
37 | CCOCCCNC(=O)C(c1ccc(OC)cc1)N(Cc1cccs1)C(=O)c1ccc(NC(C)=O)cc1 (stereo not drawn) | inactive: -6.43% | 
38 | Fc1cccc(-c2nc(-c3ccncc3)no2)c1 |  | active: 3.98 µM
39 | Cc1ccc(C(=O)c2oc3ccccc3c2NC(=O)c2cc(=O)c3ccccc3o2)cc1 | inactive: -2.1% | 
40 | CCOC(=O)c1c(C)oc2nc(C)nc(Nc3cccc(OC)c3)c12 | inactive: -4.67% | 
41 | CCN1CCC(n2cc(CNc3cc(Cl)c4ncc(C#N)c(Nc5ccc(F)c(Cl)c5)c4c3)nn2)CC1 | inactive: -2.02% | 
42 | Nc1ccc(S(=O)(=O)Nc2ccccn2)cc1 | inactive | 
43 | CCOc1ccc(CC(=O)Nc2c(C(=O)c3ccc(F)cc3)oc3ccccc23)cc1OCC | inactive: -16.4% | 
44 | COC(=O)c1ccc(C2Nc3c(C)cc(C)cc3C3C=CCC32)cc1 (stereo not drawn) | inactive: -9.81% | 
45 | Cc1ccccc1CSc1cn(CCNC(=O)c2cccs2)c2ccccc12 | inactive: -47.2% | 
46 | COc1ccc(C(CNC(=O)COc2ccc(C)c(C)c2)N2CCCCC2)cc1 (stereo not drawn) | inactive: 7.15% | 
47 | CCC(O)c1nc2ccccc2n1Cc1cccc(Cl)c1 (stereo not drawn) | inactive: -27% | 
48 | Cn1cc(-c2ccncc2)c(-c2ccc(OCc3ccc4ccccc4n3)cc2)n1 | inactive: -93.5% | 
